Among all 310,000 compounds or so, about 2,200 (0.71%) showed an effect of 50% or more. Effects have a minus sign here. This is one part of the list.

The target of the test is human ether-à-go-go-related gene (hERG) potassium channel (human, UniProt Q12809). As to the kind of experiment: primary screen, population patch clamp on CHO cells stably expressing hERG.
Sequence of human ether-à-go-go-related gene (hERG) potassium channel (Q12809 whole entry, looked up): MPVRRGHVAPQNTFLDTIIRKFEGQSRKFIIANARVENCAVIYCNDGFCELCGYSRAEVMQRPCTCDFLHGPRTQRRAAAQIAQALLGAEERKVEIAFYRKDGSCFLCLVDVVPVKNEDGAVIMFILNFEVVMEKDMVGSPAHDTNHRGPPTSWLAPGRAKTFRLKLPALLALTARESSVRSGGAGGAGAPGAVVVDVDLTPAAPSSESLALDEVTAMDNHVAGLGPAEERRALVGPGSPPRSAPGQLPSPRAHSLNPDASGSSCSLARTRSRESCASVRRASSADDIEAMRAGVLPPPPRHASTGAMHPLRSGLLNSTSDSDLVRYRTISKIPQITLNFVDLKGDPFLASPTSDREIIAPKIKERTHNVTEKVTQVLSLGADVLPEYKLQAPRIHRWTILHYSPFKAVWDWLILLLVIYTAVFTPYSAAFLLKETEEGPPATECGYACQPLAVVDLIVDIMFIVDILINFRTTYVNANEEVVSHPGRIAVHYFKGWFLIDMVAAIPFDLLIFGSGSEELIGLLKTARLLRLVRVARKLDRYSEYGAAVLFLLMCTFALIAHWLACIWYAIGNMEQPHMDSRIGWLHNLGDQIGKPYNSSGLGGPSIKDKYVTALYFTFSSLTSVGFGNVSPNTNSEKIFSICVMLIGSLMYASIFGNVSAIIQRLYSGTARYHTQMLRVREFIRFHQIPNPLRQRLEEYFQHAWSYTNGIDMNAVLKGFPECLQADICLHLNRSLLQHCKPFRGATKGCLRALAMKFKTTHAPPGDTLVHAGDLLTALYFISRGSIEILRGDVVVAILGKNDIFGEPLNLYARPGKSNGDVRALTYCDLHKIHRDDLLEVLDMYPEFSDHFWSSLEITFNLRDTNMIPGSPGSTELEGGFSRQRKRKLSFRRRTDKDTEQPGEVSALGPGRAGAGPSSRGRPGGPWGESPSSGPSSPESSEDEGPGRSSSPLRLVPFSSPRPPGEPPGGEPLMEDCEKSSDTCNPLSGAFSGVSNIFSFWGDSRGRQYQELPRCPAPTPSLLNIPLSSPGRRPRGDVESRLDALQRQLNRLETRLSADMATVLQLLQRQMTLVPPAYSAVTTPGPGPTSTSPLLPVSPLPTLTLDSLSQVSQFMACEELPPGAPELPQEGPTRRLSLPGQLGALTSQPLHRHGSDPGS
For the molecule `CCCc1c(C)[nH]c2ccccc2c1=O`, the “hERG current change (%, negative = inhibition) at 1uM” value is recorded as 6.47%. As to `Cc1cc(C)cc(NC(=O)CSc2nnnn2-c2cccnc2)c1`, the “hERG current change (%, negative = inhibition) at 1uM” value worked out at 13%. `Cn1c(SCC(=O)Nc2nccs2)nnc1C12CC3CC(CC(C3)C1)C2`: the “hERG current change (%, negative = inhibition) at 1uM” value stood at 1.76%. Then `COC(=O)[C@@H](Cc1c[nH]c2ccccc12)NC(=O)CCC(=O)c1ccc(Br)cc1`, with 3.1%; and `COC(=O)[C@@]1(C)CC[C@]2(C)CC[C@@]3(C)C(=CC(=O)C4[C@@]5(C)CC[C@H](O)C(C)(C)[C@@H]5CC[C@]43C)[C@H]2C1` (stereo partly drawn), with 17.7%; and `O=C(Nc1ccc2c(c1)OCO2)c1ccc2c(c1)OCO2`, with 17%. Then `COCCNC(=O)c1cccc2c1-c1ccccc1C2=O`, with 5.49%; and `O=c1[nH]c(Nc2ccccc2)cc2ccccc12`, with 4.01%. In the case of `COc1cc(C2CC(c3cccs3)=NN2C(=O)CCl)ccc1OC(F)F` (stereo not drawn), the “hERG current change (%, negative = inhibition) at 1uM” value came to 11.9%. The value for `CC(NS(=O)(=O)c1ccc2c(c1)CC(=O)N2C)c1ccccc1` (stereo not drawn) was 12.4%; that for `COc1cccc2c(=O)c(C(=O)O)c[nH]c12` was 8.52%. Then `O=C(/C=C/c1c(Cl)nc2ccccn12)N1CCN(c2ccc(F)cc2)CC1`, with -14.3%; and `Cc1cc(C)cc(NC(=O)CSc2nnc(C3CC3)n2CC2CCCO2)c1` (stereo not drawn), with -1.15%; and `O=C(Nc1ccccc1)C1CC(O)CN1S(=O)(=O)c1ccc([N+](=O)[O-])cc1` (stereo not drawn), with 10.4%. On to `CCc1nnc(NC(=O)CSc2nnc(C3CCCCC3)n2-c2cccc(Cl)c2)s1`, for which the “hERG current change (%, negative = inhibition) at 1uM” value was determined as 4.97%. Take `Cc1ccc2oc(=O)n(Cc3ccccc3)c2c1`: the “hERG current change (%, negative = inhibition) at 1uM” value is recorded as 13.7%. As for `CCOC(=O)c1c(NC(=O)Cc2cccs2)sc(C)c1C`, the “hERG current change (%, negative = inhibition) at 1uM” value is reported as 9.47%. `COc1ccccc1NC(=O)N(Cc1ccc2c(c1)OCO2)Cc1nc2ccccc2c(=O)[nH]1`: the “hERG current change (%, negative = inhibition) at 1uM” value came out at 2.05%.

Consider `COc1ccc(C(=O)Nc2ccc(S(=O)(=O)N3CCCC3)cc2)c(OC)c1`, for which the “hERG current change (%, negative = inhibition) at 1uM” value worked out at 2.14%.

In the case of `COC(=O)CSC1=C(C#N)C(c2ccccc2F)CC(=O)N1` (stereo not drawn), the “hERG current change (%, negative = inhibition) at 1uM” value was found to be 9.57%.

With `O=C(Nc1cc2c(oc1=O)CCCC2=O)c1ccccc1`, the “hERG current change (%, negative = inhibition) at 1uM” value is 4.57%. The value for `O=C(c1nc2ccccn2c1CNCCCn1cccn1)N1CCCC1` was -1.07%; that for `CC(=O)Nc1ccc(NC(=O)C2CCN(S(=O)(=O)c3cccc4nonc34)CC2)cc1` was -1.2%; that for `COC(=O)c1ccccc1NC(=O)C1CCN(C(=O)c2cc(OC)c(OC)c(OC)c2)CC1` was -0.2%.

For the origin of these results see article PMC4336329 (PLoS ONE, 2015).
